Source: the supplement of paper PMC9174493
The list shows a part of the results. Single values of this set are uncertain. Values with irradiation are relative to irradiated vehicle.

Experiments:
[1] = system: A549-Dual; assay: NF-kB reporter (SEAP) activity, viability-corrected, relative to vehicle (fold change vs vehicle); higher = more activation of STING-IRF / NF-kB immune response reporter
[2] = system: A549-Dual; assay: ISRE reporter (Lucia luciferase) activity, viability-corrected, relative to vehicle (fold change vs vehicle); higher = more activation of STING-IRF / NF-kB immune response reporter
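Wherever NF-kB reporter (SEAP) activity, viability-corrected, relative to vehicle is given: viability correction based on the alamar blue assay, with concentrations leaving 10% survival or less dropped.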

Compound	NF-kB reporter ([1]; 0.1 µM, irradiation: 8 Gy/4 fr)	NF-kB reporter ([1]; 0.1 µM, irradiation: none)	NF-kB reporter ([1]; 0.3 µM, irradiation: 8 Gy/4 fr)	NF-kB reporter ([1]; 0.3 µM, irradiation: none)	NF-kB reporter ([1]; 1 µM, irradiation: 8 Gy/4 fr)	NF-kB reporter ([1]; 1 µM, irradiation: none)	NF-kB reporter ([1]; 3 µM, irradiation: 8 Gy/4 fr)	NF-kB reporter ([1]; 3 µM, irradiation: none)	NF-kB reporter ([1]; 10 µM, irradiation: 8 Gy/4 fr)	NF-kB reporter ([1]; 10 µM, irradiation: none)	ISRE reporter ([2]; 0.1 µM, irradiation: 8 Gy/4 fr)	ISRE reporter ([2]; 0.1 µM, irradiation: none)	ISRE reporter ([2]; 0.3 µM, irradiation: 8 Gy/4 fr)	ISRE reporter ([2]; 0.3 µM, irradiation: none)	ISRE reporter ([2]; 1 µM, irradiation: 8 Gy/4 fr)	ISRE reporter ([2]; 1 µM, irradiation: none)	ISRE reporter ([2]; 3 µM, irradiation: 8 Gy/4 fr)	ISRE reporter ([2]; 3 µM, irradiation: none)	ISRE reporter ([2]; 10 µM, irradiation: 8 Gy/4 fr)	ISRE reporter ([2]; 10 µM, irradiation: none)
CC(=O)OC1CCC2(C)C(CCC3(C)C2C(=O)C=C2C4C(C)C(C)CCC4(C)CCC23C)C1(C)C(=O)O (stereo not given)	1.03	1.02	1.03	0.862	1.01	0.846	1.15	0.853	2.65	1.32	1.08	0.901	1.08	0.689	0.722	0.665	0.792	0.86	0.066	0.35
CNC(=O)C(NC(=O)C(CC(C)C)C(O)C(=O)NO)C(C)(C)C (stereo not given) [Marimastat (BB-2516)]	0.872	1.04	0.852	0.953	0.982	0.944	0.949	1.01	1.11	0.889	0.939	0.97	0.904	0.898	0.957	0.823	0.833	0.814	0.944	0.841
CCC(Nc1ncnc2[nH]cnc12)c1nc2cccc(F)c2c(=O)n1-c1ccccc1 (stereo not given) [Idelalisib (CAL-101, GS-1101)]	1.18	1.15	1.33	1.04	1.1	1.58	1.06	1.17	1.02	1.1	1.12	0.945	1.23	1.03	1.14	1.08	1.09	0.749	1.11	1.19
COc1ccc2cc1Oc1ccc(cc1)CC1c3c(cc4c(c3Oc3cc5c(cc3OC)CCN(C)C5C2)OCO4)CCN1C (stereo not given) [Cepharanthine]	1.2	1.37	1.36	0.947	1.27	1.19	1.24	0.995	0.983	1.17	1.13	0.964	1.15	0.905	1.04	1.32	1.09	1.18	1.21	3.34
CNC(=NC#N)NCCSCc1nc[nH]c1C [Cimetidine]	1.02	2.02	1.26	2.03	1.72	1.6	2.12	1.48	1.74	1.06	1.15	1.49	1.12	1.31	1.18	1.37	1.3	1.58	1.22	0.853
CC(=O)Nc1ccc(CC(=O)O)cc1 [Actarit]	1.21	2.38	1.62	2	1.59	1.44	2.35	1.41	1.58	1.24	1.11	1.97	1.33	1.55	1.55	1.24	1.27	1.25	1.44	0.992
C=C1CCC2C(C)(COC(=O)CCC(=O)O)C(OC(=O)CCC(=O)O)CCC2(C)C1/C=C/C1=CCOC1=O (stereo not given) [Dehydroandrographolide Succinate]	0.938	0.719	0.965	0.638	0.889	0.722	0.843	0.872	0.787	0.901	0.9	0.848	0.889	0.703	0.787	0.72	0.863	0.874	0.867	0.824
O=C(O)COC(=O)Cc1ccccc1Nc1c(Cl)cccc1Cl [Aceclofenac]	0.99	1.71	1.2	1.46	1.29	1.19	1.63	1.23	0.784	0.476	0.938	1.72	0.974	1.38	1.13	1.03	0.855	1.05	0.951	0.92
CC(Nc1ncnc2[nH]cnc12)c1cc2cccc(Cl)c2c(=O)n1-c1ccccc1 (stereo not given) [Duvelisib (IPI-145, INK1197)]	0.948	1.33	0.918	0.948	1.02	0.956	0.962	0.898	0.899	0.86	0.989	1.34	1.11	0.93	1.09	1.03	1.16	0.902	1.12	1.3
Cc1cn(-c2cc(NC(=O)c3ccc(C)c(Nc4nccc(-c5cccnc5)n4)c3)cc(C(F)(F)F)c2)cn1 [Nilotinib (AMN-107)]	0.805	0.93	0.865	1.05	0.763	0.935	0.86	0.772	0.992	0.843	0.849	1	0.906	1.11	0.757	0.929	0.767	0.823	0.805	0.78
O=C(O)c1ccccc1Nc1cccc(C(F)(F)F)c1 [Flufenamic acid]	1.22	0.712	1.02	0.691	0.893	0.923	0.847	0.883	0.827	0.864	0.949	0.775	0.911	0.739	0.824	0.827	0.844	0.814	0.846	0.718
O=NN(CCCl)C(=O)NC1CCCCC1 [Lomustine]	0.866	1.11	0.932	1.06	0.786	0.925	0.87	0.932	0.967	0.787	0.807	0.935	1.11	0.868	0.776	0.825	0.868	0.95	0.903	0.697
Cc1cc(C(C)(C)C)cc(C)c1CC1=NCCN1 [Xylometazoline]	0.774	0.988	0.854	0.872	0.863	0.819	1.13	0.868	0.913	0.949	0.784	0.827	0.806	0.673	0.696	0.692	0.793	0.873	1.04	0.999
CC1=C(CC(=O)O)c2cc(F)ccc2/C1=C\c1ccc(S(C)=O)cc1 (stereo not given) [Sulindac]	0.871	0.913	0.891	0.901	0.796	0.907	0.941	0.885	0.967	1.04	1.06	0.968	1.04	0.985	0.849	0.89	0.902	0.66	1.02	1.08
CCCC(CCC)C(=O)O [Valproic acid]	1.2	1.24	1.02	1.37	1.1	1.69	1.3	1.39	1.1	1.16	1.06	1.15	1.03	1.25	1.19	1.23	1.18	0.788	1.11	1.08
Cn1cc(C2=C(c3cccc(N)c3)C(=O)NC2=O)c2ccccc21	0.979	1.36	0.783	1.71	0.949	2.15	0.595	1.27	0.583	1.08	1.13	1.13	0.924	1.29	0.916	1.29	0.181	0.497	0.131	0.494
CC1CC2C(C(O)CC3(C)C2CCC3(O)C(=O)COC(=O)CCC(=O)O)C2(C)C=CC(=O)C=C12 (stereo not given) [Methylprednisolone hemisuccinate]	0.842	1.15	1.22	1	1.35	0.771	0.691	0.766	0.563	0.796	0.157	0.802	0.281	0.276	0.0917	0.268	0.0816	0.171	0.0588	0.196
Cc1ccc(C(C)C)c(O)c1 [Thymol]	1.13	1.71	1.23	1.43	1.25	1.19	1.8	1.2	1.25	1.28	1.21	1.77	1.17	1.28	1.16	1.1	1.01	1.09	1.05	0.969
CC(=O)OCC(=O)C1(O)CCC2C3CCC4=CC(=O)CCC4(C)C3C(=O)CC21C (stereo not given) [Cortisone acetate]	1.11	1.2	0.903	1.6	0.891	1.68	1	1.27	0.92	0.9	0.923	1.14	0.912	1.21	0.905	1.08	0.961	0.846	0.846	0.78
COc1cc(N2CCC(N3CCN(C)CC3)CC2)ccc1Nc1ncc(Cl)c(Nc2ccccc2P(C)(C)=O)n1	0.873	0.934	0.819	0.773	0.871	0.898	1.09	1.04	1.38	1.1	0.989	1.1	0.912	0.872	0.986	1.04	0.994	0.936	1.08	0.947
COc1ccc2c(c1)c(CC(=O)O)c(C)n2C(=O)c1ccc(Cl)cc1 [Indomethacin]	0.939	1.45	0.929	1.26	1.45	1	1.63	0.982	1.15	0.834	1.04	1.03	0.908	0.967	1.02	1.07	1.08	0.976	1.23	0.901
COc1ccc2cc1Oc1ccc(cc1)CC1c3cc(c(OC)cc3CCN1C)Oc1c(O)c(OC)cc3c1C(C2)N(C)CC3 (stereo not given) [Fangchinoline]	1.32	1.21	1.1	1.74	1.06	2	1.22	1.47	1.04	1.24	1.25	1.23	1.41	1.77	1.39	1.73	1.51	2.05	1.46	3.56
